Measured values reported in patent US20190367516A1 (Bayer Pharma Aktiengesellschaft, priority 2015, published 2019).

What follows are compounds tested against T1, human M2 receptor (Homo sapiens, UniProt P08172). Conditions: read-out: Efficiency, M2-GIRK1/4 activation test; boosting of the acetylcholine effect at an EC20 acetylcholine concentration.
T1 sequence (P08172 1-466): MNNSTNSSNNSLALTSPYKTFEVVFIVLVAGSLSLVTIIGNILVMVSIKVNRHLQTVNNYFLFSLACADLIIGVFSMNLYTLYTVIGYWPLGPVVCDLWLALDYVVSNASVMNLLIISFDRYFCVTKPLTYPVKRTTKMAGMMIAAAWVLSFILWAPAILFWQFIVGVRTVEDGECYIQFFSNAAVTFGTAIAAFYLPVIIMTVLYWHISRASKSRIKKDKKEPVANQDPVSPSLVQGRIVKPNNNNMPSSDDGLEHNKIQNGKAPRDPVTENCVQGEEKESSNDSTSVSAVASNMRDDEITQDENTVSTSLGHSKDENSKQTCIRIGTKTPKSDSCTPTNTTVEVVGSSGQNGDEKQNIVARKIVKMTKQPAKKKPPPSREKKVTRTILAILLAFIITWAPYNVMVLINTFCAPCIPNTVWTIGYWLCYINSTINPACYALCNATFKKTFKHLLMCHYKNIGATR

**Q.** How did the Emax turn out when `CC(C)C[C@@H](NC(=O)c1cn(-c2ccc(F)cc2F)c2nc(N(C)C)ccc2c1=O)C(F)(F)F` [Example 133, 1-(2,4-Difluorophenyl)-7-(dimethylamino)-4-oxo-N-[(2R)-1,1,1-trifluoro-4-methylpentan-2-yl]-1,4-dihydro-1,8-naphthyridine-3-carboxamide] was run?
**A.** 94%

**Q.** How did the Emax turn out when `CC(C)[C@H](NC(=O)c1cn(-c2ccc(F)cc2F)c2nc(N(C)C)ccc2c1=O)C(F)(F)F` [Example 134, 1-(2,4-Difluorophenyl)-7-(dimethylamino)-4-oxo-N-[(2S)-1,1,1-trifluoro-3-methylbutan-2-yl]-1,4-dihydro-1,8-naphthyridine-3-carboxamide] was run?
**A.** 92.5%

**Q.** `O=C(NC12CC3CC(CC(C3)C1)C2)c1cn(-c2ccc(F)cc2F)c2nc(N3CCOCC3)ccc2c1=O` [Example 136, 1-(2,4-Difluorophenyl)-7-(morpholin-4-yl)-4-oxo-N-(tricyclo[3.3.1.1^3,7]dec-1-yl)-1,4-dihydro-1,8-naphthyridine-3-carboxamide] was tested. Which Emax did it give?
**A.** 81.5%

**Q.** For `CC(C)C[C@H](NC(=O)c1cn(-c2ccc(F)cc2F)c2nc(N(C)C)ccc2c1=O)C(F)(F)F` [Example 137, 1-(2,4-Difluorophenyl)-7-(dimethylamino)-4-oxo-N-[(2S)-1,1,1-trifluoro-4-methylpentan-2-yl]-1,4-dihydro-1,8-naphthyridine-3-carboxamide], which Emax is on record?
**A.** 97%

**Q.** With `CN(C)c1ccc2c(=O)c(C(=O)NC(C(F)(F)F)C(F)(F)F)cn(-c3ccc(F)cc3F)c2n1` [Example 149, 1-(2,4-Difluorophenyl)-7-(dimethylamino)-N-(1,1,1,3,3,3-hexafluoropropan-2-yl)-4-oxo-1,4-dihydro-1,8-naphthyridine-3-carboxamide] as the compound, how does the Emax read?
**A.** 100%

**Q.** Which Emax does the source give for `CN(C)c1ccc2c(=O)c(C(=O)NC3(C(F)(F)F)CCCC3)cn(-c3ccc(F)cc3F)c2n1` [Example 151, 1-(2,4-Difluorophenyl)-7-(dimethylamino)-4-oxo-N-[1-(trifluoromethyl)cyclopentyl]-1,4-dihydro-1,8-naphthyridine-3-carboxamide] here?
**A.** 86.4%

**Q.** Which Emax does the source give for `CN(C)c1ccc2c(=O)c(C(=O)NC34CCC(CC3)CC4)cn(-c3ccc(F)cc3Cl)c2n1` [Example 152, N-(Bicyclo[2.2.2]oct-1-yl)-1-(2-chloro-4-fluorophenyl)-7-(dimethylamino)-4-oxo-1,4-dihydro-1,8-naphthyridine-3-carboxamide] here?
**A.** 97%

**Q.** With `CN(C)c1ccc2c(=O)c(C(=O)NC34CC5CC(C3)CC(C(F)(F)F)(C5)C4)cn(-c3ccc(F)cc3Cl)c2n1` [Example 153, 1-(2-Chloro-4-fluorophenyl)-7-(dimethylamino)-4-oxo-N-[3-(trifluoromethyl)tricyclo[3.3.1.1^3,7]dec-1-yl]-1,4-dihydro-1,8-naphthyridine-3-carboxamide] as the compound, how does the Emax read?
**A.** 100%

**Q.** With `CN(C)c1ccc2c(=O)c(C(=O)NC3CC34CCCCC4)cn(-c3ccc(F)cc3Cl)c2n1` (centres unmarked) [Example 154, 1-(2-Chloro-4-fluorophenyl)-7-(dimethylamino)-4-oxo-N-(spiro[2.5]oct-1-yl)-1,4-dihydro-1,8-naphthyridine-3-carboxamide] as the compound, how does the Emax read?
**A.** 97.6%

**Q.** For `CN(C)c1ccc2c(=O)c(C(=O)NC(C)(C)C)cn(-c3ccc(F)cc3Cl)c2n1` [Example 155, N-tert-Butyl-1-(2-chloro-4-fluorophenyl)-7-(dimethylamino)-4-oxo-1,4-dihydro-1,8-naphthyridine-3-carboxamide], which Emax is on record?
**A.** 97.7%

**Q.** For `CN(C)c1ccc2c(=O)c(C(=O)NC3(C)CCCCC3)cn(-c3ccc(F)cc3Cl)c2n1` [Example 156, 1-(2-Chloro-4-fluorophenyl)-7-(dimethylamino)-N-(1-methylcyclohexyl)-4-oxo-1,4-dihydro-1,8-naphthyridine-3-carboxamide], which Emax is on record?
**A.** 84.7%

**Q.** For `CCC12CC3CC(C1)CC(NC(=O)c1cn(-c4ccc(F)cc4Cl)c4nc(N(C)C)ccc4c1=O)(C3)C2` [Example 157, 1-(2-Chloro-4-fluorophenyl)-7-(dimethylamino)-N-(3-ethyltricyclo[3.3.1.1^3,7]dec-1-yl)-4-oxo-1,4-dihydro-1,8-naphthyridine-3-carboxamide], which Emax is on record?
**A.** 100%

**Q.** `CC(C)Nc1ccc2c(=O)c(C(=O)NC34CC5CC(CC(C5)C3)C4)cn(-c3ccc(F)cc3F)c2n1` [Example 158, 1-(2,4-Difluorophenyl)-4-oxo-7-(propan-2-ylamino)-N-(tricyclo[3.3.1.1^3,7]dec-1-yl)-1,4-dihydro-1,8-naphthyridine-3-carboxamide] was tested. Which Emax did it give?
**A.** 100%

**Q.** `CNc1ccc2c(=O)c(C(=O)NC34CC5CC(C3)CC(C(F)(F)F)(C5)C4)cn(-c3ccc(F)cc3F)c2n1` [Example 160, 1-(2,4-Difluorophenyl)-7-(methylamino)-4-oxo-N-[3-(trifluoromethyl)tricyclo[3.3.1.1^3,7]dec-1-yl]-1,4-dihydro-1,8-naphthyridine-3-carboxamide] was tested. Which Emax did it give?
**A.** 92.5%

**Q.** For `CNc1ccc2c(=O)c(C(=O)NC34CC5CC(C3)C(F)(F)C(C5)C4)cn(-c3ccc(F)cc3F)c2n1` [Example 161], which Emax is on record?
**A.** 99.5%

**Q.** With `CNc1ccc2c(=O)c(C(=O)NC34CCC(CC3)CC4)cn(-c3ccc(F)cc3F)c2n1` [Example 162] as the compound, how does the Emax read?
**A.** 93.2%

**Q.** How did the Emax turn out when `O=C(Nc1c(Cl)cccc1Cl)c1cn(-c2ccc(F)cc2F)c2nc(NCC(F)(F)F)ccc2c1=O` [Example 163, N-(2,6-Dichlorophenyl)-1-(2,4-difluorophenyl)-4-oxo-7-[(2,2,2-trifluoroethyl)amino]-1,4-dihydro-1,8-naphthyridine-3-carboxamide] was run?
**A.** 92.8%

**Q.** How did the Emax turn out when `COC(=O)N1CCN(c2ccc3c(=O)c(C(=O)Nc4c(Cl)cccc4Cl)cn(-c4ccc(F)cc4F)c3n2)CC1` [Example 164, Methyl 4-{6-[(2,6-dichlorophenyl)carbamoyl]-8-(2,4-difluorophenyl)-5-oxo-5,8-dihydro-1,8-naphthyridin-2-yl}piperazine-1-carboxylate] was run?
**A.** 97.3%

**Q.** For `O=C(NC12CC3CC(CC(C3)C1)C2)c1cn(-c2ccc(F)cc2F)c2nc(N3CCCCC3=O)ccc2c1=O` [Example 165, 1-(2,4-Difluorophenyl)-4-oxo-7-(2-oxopiperidin-1-yl)-N-(tricyclo[3.3.1.1^3,7]dec-1-yl)-1,4-dihydro-1,8-naphthyridine-3-carboxamide], which Emax is on record?
**A.** 40.5%

**Q.** `O=C(NC12CC3CC(CC(C3)C1)C2)c1cn(-c2ccc(F)cc2F)c2nc(N3CCCS3(=O)=O)ccc2c1=O` [Example 167] was tested. Which Emax did it give?
**A.** 95%

**Q.** For `O=C(NC12CC3CC(CC(C3)C1)C2)c1cn(-c2ccc(F)cc2F)c2nc(N3CCC3=O)ccc2c1=O` [Example 168], which Emax is on record?
**A.** 95%

**Q.** For `CN(c1ccc2c(=O)c(C(=O)NC34CC5CC(CC(C5)C3)C4)cn(-c3ccc(F)cc3F)c2n1)S(C)(=O)=O` [Example 169], which Emax is on record?
**A.** 79.5%

**Q.** How did the Emax turn out when `O=C(NC12CC3CC(CC(C3)C1)C2)c1cn(-c2ccc(F)cc2F)c2nc(N3C[C@@H](O)CC3=O)ccc2c1=O` [Example 170] was run?
**A.** 96.5%

**Q.** For `O=C(NC12CC3CC(CC(C3)C1)C2)c1cn(-c2ccc(F)cc2F)c2nc(N3CC(F)(F)CCC3=O)ccc2c1=O` [Example 171], which Emax is on record?
**A.** 90.5%

**Q.** How did the Emax turn out when `O=C(NC12CC3CC(CC(C3)C1)C2)c1cn(-c2ccc(F)cc2F)c2nc(N3CCOCC3=O)ccc2c1=O` [Example 172] was run?
**A.** 87.3%

**Q.** How did the Emax turn out when `O=C(NC12CC3CC(CC(C3)C1)C2)c1cn(-c2ccc(F)cc2F)c2nc(N3CCC(O)CC3=O)ccc2c1=O` (centres unmarked) [Example 173] was run?
**A.** 100%

**Q.** `CCC(NC(=O)c1cn(-c2ccc(F)cc2F)c2nc(N3CCCC3=O)ccc2c1=O)C(F)(F)F` (centres unmarked) [Example 177] was tested. Which Emax did it give?
**A.** 82.4%

**Q.** `CC[C@@H](NC(=O)c1cn(-c2ccc(F)cc2F)c2nc(N3CCCCC3=O)ccc2c1=O)C(F)(F)F` [Example 178] was tested. Which Emax did it give?
**A.** 81.3%

**Q.** For `CC(NC(=O)c1cn(-c2ccc(F)cc2F)c2nc(N3CCCC3=O)ccc2c1=O)C(F)(F)F` (centres unmarked) [Example 179], which Emax is on record?
**A.** 63.3%

**Q.** For `CCC(NC(=O)c1cn(-c2ccc(F)cc2F)c2nc(N3CCCS3(=O)=O)ccc2c1=O)C(F)(F)F` (centres unmarked) [Example 180], which Emax is on record?
**A.** 96.6%

**Q.** How did the Emax turn out when `CC12CCC(NC(=O)c3cn(-c4ccc(F)cc4F)c4nc(N5CC(O)CC5=O)ccc4c3=O)(CC1)CC2` (centres unmarked) [Example 181] was run?
**A.** 94.5%

**Q.** How did the Emax turn out when `O=C(NCc1c(Cl)cccc1Cl)c1cn(-c2ccc(F)cc2F)c2nc(N3CCCS3(=O)=O)ccc2c1=O` [Example 182, N-(2,6-Dichlorobenzyl)-1-(2,4-difluorophenyl)-7-(1,1-dioxido-1,2-thiazolidin-2-yl)-4-oxo-1,4-dihydro-1,8-naphthyridine-3-carboxamide] was run?
**A.** 94.8%

**Q.** For `CC(C)(NC(=O)c1cn(-c2ccc(F)cc2F)c2nc(N3CCNC3=O)ccc2c1=O)c1c(F)cccc1F` [Example 184, 1-(2,4-Difluorophenyl)-N-[2-(2,6-difluorophenyl)propan-2-yl]-4-oxo-7-(2-oxoimidazolidin-1-yl)-1,4-dihydro-1,8-naphthyridine-3-carboxamide], which Emax is on record?
**A.** 99%

**Q.** For `O=C(NC12CC3CC(CC(C3)C1)C2)c1cn(-c2ccc(F)cc2F)c2nc(N3CCNC3=O)ccc2c1=O` [Example 186, 1-(2,4-Difluorophenyl)-4-oxo-7-(2-oxoimidazolidin-1-yl)-N-(tricyclo[3.3.1.1^3,7]dec-1-yl)-1,4-dihydro-1,8-naphthyridine-3-carboxamide], which Emax is on record?
**A.** 94%

**Q.** Which Emax does the source give for `O=C(NC12CC3CC(CC(C3)C1)C2)c1cn(-c2ccc(F)cc2F)c2nc(N3CC(F)CC3=O)ccc2c1=O` (centres unmarked) [Example 187, 1-(2,4-Difluorophenyl)-7-[4-fluoro-2-oxopyrrolidin-1-yl]-4-oxo-N-(tricyclo[3.3.1.1^3,7]dec-1-yl)-1,4-dihydro-1,8-naphthyridine-3-carboxamide] here?
**A.** 93.5%
